Laboratory results as given in PubChem BioAssay (NCI).
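Step 1: Grow cells in 96-well plates. Step 2: Expose to compound for 48 hours at 5 concentrations. Step 3: Interpolate endpoints linearly; if unreached, use highest concentration. Abbreviation: GI50, concentration required for 50% inhibition of growth.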 The source holds more than one record for some entries. Only these are listed. The source may hold further records. For some of these results: The tests behind the records often covered other concentration ranges, which the source does not state; a value can be the end of its range. Brackets tell where a record comes from. A, B and so on number the origins entry by entry. For some of these results: The records of an entry are repeated measurements (runs, samples, wells, individuals or studies).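 Definition used: TGI = concentration required for complete inhibition of growth.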

What was measured:
Assay in all cases: growth of human tumour cells (NCI), 48 h
UO-31 renal = tested on: UO-31 renal
OVCAR-5 ovarian = tested on: OVCAR-5 ovarian
OVCAR-4 ovarian = tested on: OVCAR-4 ovarian
BT-549 breast = tested on: BT-549 breast
NCI-H226 lung = tested on: NCI-H226 lung
MCF7 breast = tested on: MCF7 breast
TK-10 renal = tested on: TK-10 renal
SR leukemia = tested on: SR leukemia
SK-MEL-5 melanoma = tested on: SK-MEL-5 melanoma
HL-60(TB) leukemia = tested on: HL-60(TB) leukemia
A549 NSCLC = tested on: A549 NSCLC
NCI-H460 lung = tested on: NCI-H460 lung
HCT-15 colon = tested on: HCT-15 colon
RPMI-8226 leukemia = tested on: RPMI-8226 leukemia
SNB-75 CNS = tested on: SNB-75 CNS
U251 CNS = tested on: U251 CNS
K-562 leukemia = tested on: K-562 leukemia
CCRF-CEM leukemia = tested on: CCRF-CEM leukemia
KM12 colon = tested on: KM12 colon
MDA-MB-435 = tested on: MDA-MB-435
HCT-116 colon = tested on: HCT-116 colon
UACC-62 melanoma = tested on: UACC-62 melanoma
NCI/ADR-RES ovarian = tested on: NCI/ADR-RES ovarian
786-0 renal = tested on: 786-0 renal
MDA-N = tested on: MDA-N
NCI-H23 lung = tested on: NCI-H23 lung
MOLT-4 leukemia = tested on: MOLT-4 leukemia
SK-MEL-28 melanoma = tested on: SK-MEL-28 melanoma
COLO 205 colon = tested on: COLO 205 colon
OVCAR-3 ovarian = tested on: OVCAR-3 ovarian
SF-295 CNS = tested on: SF-295 CNS
OVCAR-8 ovarian = tested on: OVCAR-8 ovarian
T-47D breast = tested on: T-47D breast
SF-539 CNS = tested on: SF-539 CNS
UACC-257 melanoma = tested on: UACC-257 melanoma
SK-MEL-2 melanoma = tested on: SK-MEL-2 melanoma
HT29 colon = tested on: HT29 colon
HOP-92 NSCLC = tested on: HOP-92 NSCLC
SK-OV-3 ovarian = tested on: SK-OV-3 ovarian
PC-3 prostate = tested on: PC-3 prostate
DU-145 prostate = tested on: DU-145 prostate
EKVX NSCLC = tested on: EKVX NSCLC
M14 melanoma = tested on: M14 melanoma
MDA-MB-231 breast = tested on: MDA-MB-231 breast

**Q.** With `COC(=O)[C@@H](C)C[C@H](Cc1ccccc1)NC(=O)c1csc([C@@H](C[C@H](C(C)C)N(C)C(=O)[C@@H](NC(=O)[C@H]2CCCN2C)C2CC2)OC(C)=O)n1` as the compound, how does the GI50 (UO-31 renal) read?
**A.** 25.7 nM and 2.5 nM

**Q.** What about the GI50 (OVCAR-5 ovarian) of the same compound?
**A.** 43.3 nM and 2.5 nM

**Q.** What about the GI50 (OVCAR-4 ovarian) of the same compound?
**A.** 4.44 nM and 1.3 µM

**Q.** And the TGI (BT-549 breast)?
**A.** 129 nM and < 2.5 nM

**Q.** And the GI50 (NCI-H226 lung)?
**A.** 433 nM and 2.5 nM

**Q.** And the GI50 (MCF7 breast)?
**A.** 0.204 nM and 2.5 nM

**Q.** What about the GI50 (TK-10 renal) of the same compound?
**A.** 335 nM and 2.5 nM

**Q.** And the GI50 (SR leukemia)?
**A.** 0.163 nM and 2.5 nM

**Q.** And the TGI (SK-MEL-5 melanoma)?
**A.** 107 nM and < 2.5 nM

**Q.** `O=C1CC(CC(OCc2ccccc2)C(OCc2ccccc2)C(COCc2ccccc2)OCc2ccccc2)CC(=O)N1` (configuration not stated) was tested. Which GI50 (HL-60(TB) leukemia) did it give?
**A.** > 100 µM [sample A, 1 test] and 5.43 µM [sample B, 1 test]

**Q.** What about the TGI (UO-31 renal) of the same compound?
**A.** > 100 µM [sample A, 1 test] and 5.64 µM [sample B, 1 test]

**Q.** What about the GI50 (A549 NSCLC) of the same compound?
**A.** > 100 µM [sample A, 1 test] and 6.23 µM [sample B, 1 test]

**Q.** And the GI50 (NCI-H460 lung)?
**A.** > 100 µM [sample A, 1 test] and 9.28 µM [sample B, 1 test]

**Q.** What about the GI50 (HCT-15 colon) of the same compound?
**A.** > 100 µM [sample A, 1 test] and 6.99 µM [sample B, 1 test]

**Q.** What about the GI50 (OVCAR-4 ovarian) of the same compound?
**A.** > 100 µM [sample A, 1 test] and 9.54 µM [sample B, 1 test]

**Q.** And the GI50 (RPMI-8226 leukemia)?
**A.** > 100 µM [sample A, 1 test] and 6.56 µM [sample B, 1 test]

**Q.** And the GI50 (SNB-75 CNS)?
**A.** > 100 µM [sample A, 1 test] and 8.13 µM [sample B, 1 test]

**Q.** What about the GI50 (U251 CNS) of the same compound?
**A.** > 100 µM [sample A, 1 test] and 4.54 µM [sample B, 1 test]

**Q.** What about the GI50 (K-562 leukemia) of the same compound?
**A.** > 100 µM [sample A, 1 test] and 5.77 µM [sample B, 1 test]

**Q.** And the GI50 (CCRF-CEM leukemia)?
**A.** > 100 µM [sample A, 1 test] and 6.17 µM [sample B, 1 test]

**Q.** What about the GI50 (KM12 colon) of the same compound?
**A.** 15.8 nM [sample A, 1 test] and 6.46 µM [sample B, 1 test]

**Q.** What about the GI50 (MDA-MB-435) of the same compound?
**A.** > 100 µM [sample A, 1 test] and 7.61 µM [sample B, 1 test]

**Q.** What about the GI50 (MCF7 breast) of the same compound?
**A.** > 100 µM [sample A, 1 test] and 7.68 µM [sample B, 1 test]

**Q.** And the GI50 (HCT-116 colon)?
**A.** > 100 µM [sample A, 1 test] and 8.8 µM [sample B, 1 test]

**Q.** What about the GI50 (SR leukemia) of the same compound?
**A.** > 100 µM [sample A, 1 test] and 6.84 µM [sample B, 1 test]

**Q.** Which results are given for `C[C@H]1CCC/C=C/[C@@H]2C[C@H](O)C[C@H]2[C@H](O)/C=C/C(=O)O1`?
**A.** TGI (UACC-62 melanoma): 4.59 µM [sample A] and 54.3 nM [sample B]; TGI (NCI/ADR-RES ovarian): > 100 µM [sample A] and 121 nM, > 100 µM [sample B]; TGI (786-0 renal): 31.4 nM and 391 nM; TGI (MDA-N): > 100 µM [sample A] and 9.45 µM, 11.1 µM [sample B]; TGI (NCI-H23 lung): 210 nM and 21.6 µM; TGI (MOLT-4 leukemia): 519 nM [sample A, mean of 2 tests] and > 57.9 µM [sample B, mean of 3 tests] and 927 nM [sample B, mean of 4 tests]; TGI (SK-MEL-28 melanoma): > 100 µM [sample A] and 1.62 µM, > 8.85 µM [sample B]; TGI (NCI-H460 lung): > 100 µM [sample A, mean of 2 tests] and > 13.5 µM [sample B, mean of 3 tests] and 325 nM [sample B, mean of 4 tests]; GI50 (COLO 205 colon): < 10 nM [sample A, 1 test] and 110 nM [sample B, mean of 2 tests]; TGI (OVCAR-3 ovarian): 1.65 µM [sample A] and 146 nM, 792 nM [sample B]; TGI (OVCAR-5 ovarian): > 100 µM [sample A] and 726 nM, 12.6 µM [sample B]; TGI (HCT-15 colon): > 100 µM [sample A] and 1.02 µM, 2.33 µM [sample B]; TGI (SF-295 CNS): 3.69 µM [sample A, mean of 2 tests] and > 100 µM [sample B, mean of 3 tests]; TGI (RPMI-8226 leukemia): > 57.7 µM [mean of 3 tests] and 3.45 µM [mean of 4 tests]; TGI (SNB-75 CNS): < 10 nM [sample A] and 2.54 µM, 1.31 µM [sample B]; TGI (OVCAR-8 ovarian): > 100 µM [sample A] and 812 nM, 3.74 µM [sample B]; TGI (T-47D breast): 8.96 µM [sample A] and 383 nM, 95.2 µM [sample B]; GI50 (BT-549 breast): < 10 nM [sample A, 1 test] and 190 nM [sample B, 1 test] and 92.9 nM [sample B, mean of 2 tests]; TGI (BT-549 breast): 86 nM [sample A, 1 test] and > 100 µM [sample B, 1 test] and 6.34 µM [sample B, mean of 2 tests]; TGI (SF-539 CNS): > 100 µM [sample A] and 2.14 µM, > 51.8 µM [sample B]; TGI (K-562 leukemia): > 100 µM [sample A] and 8.49 µM, > 100 µM [sample B]; TGI (KM12 colon): < 16 nM [sample A] and 24.8 nM, 380 nM [sample B]; TGI (UACC-257 melanoma): > 64 µM [sample A] and 104 nM, 1.37 µM [sample B]; TGI (SK-MEL-2 melanoma): > 100 µM [sample A] and 263 nM, 279 nM [sample B]; TGI (HT29 colon): 13.4 nM [sample A] and 825 nM, 1.09 µM [sample B]; TGI (HOP-92 NSCLC): > 100 µM [sample A] and 2.64 µM, 356 nM [sample B]; TGI (SK-OV-3 ovarian): > 100 µM [sample A] and 880 nM, > 100 µM [sample B]; TGI (MDA-MB-435): > 100 µM [sample A, mean of 2 tests] and 899 nM [sample B, mean of 2 tests]; TGI (MCF7 breast): 57.2 nM [sample A] and 67 nM, 1.77 µM [sample B]; TGI (SR leukemia): 500 nM and > 100 µM; TGI (PC-3 prostate): > 87.4 µM [sample A, mean of 2 tests] and 8.89 µM, > 100 µM [sample B, mean of 2 tests]; TGI (DU-145 prostate): > 100 µM [sample A, mean of 2 tests] and 15 µM [sample B, 1 test] and 914 nM [sample B, mean of 2 tests]; TGI (EKVX NSCLC): > 100 µM [sample A, mean of 2 tests] and 2.73 µM, 5.35 µM [sample B, mean of 3 tests]

**Q.** Which TGI (M14 melanoma) does the source give for `CN1CCN(CCCN2c3ccccc3Sc3ccc(Cl)cc32)CC1` here?
**A.** 56.4 µM [sample A, 1 test] and 2.47 µM [sample B, 1 test]

**Q.** And the TGI (UACC-62 melanoma)?
**A.** 64.8 µM [sample A, 1 test] and 1.83 µM [sample B, 1 test]

**Q.** And the TGI (MDA-MB-231 breast)?
**A.** 64.3 µM [sample A, 1 test] and 6.24 µM [sample B, 1 test]

**Q.** And the TGI (SK-MEL-28 melanoma)?
**A.** 56.5 µM [sample A, 1 test] and 2.34 µM [sample B, 1 test]

**Q.** What about the TGI (SNB-75 CNS) of the same compound?
**A.** 80.4 µM [sample A, 1 test] and 7.33 µM [sample B, 1 test]

**Q.** What about the TGI (UACC-257 melanoma) of the same compound?
**A.** 62.7 µM [sample A, 1 test] and 2.04 µM [sample B, 1 test]

**Q.** And the TGI (HT29 colon)?
**A.** 67.6 µM [sample A, 1 test] and 6.62 µM [sample B, 1 test]

**Q.** `C=C1c2nc3ccccc3n2C=C(c2ccc(Cl)cc2)N1c1ccc(OCCN2CCCCC2)cc1` was tested. Which TGI (CCRF-CEM leukemia) did it give?
**A.** > 45 µM and 2.32 µM

**Q.** What about the TGI (SR leukemia) of the same compound?
**A.** > 45 µM and 756 nM
